B1: LINE1-mini (parent)
chain: GGCAGAGCUCAACACAGCGUGGCAAAGUGGCUGUGGCUAGACUGCC

The source gives no read counts; variants with many changes may rest on few reads.

Variants of B1 are the subject of this series. Briefly: self-cleavage, relative activity (ratio to wild type); higher = more cleavage; in vitro, sequencing; the parent is a self-cleaving ribozyme.
For C8A C10U A11C C13A G35A C37A C42U, the self-cleavage was 0.01.
A4G G29C C45U: the self-cleavage was found to be 0.31.
Turning to G7A C23G A26U A41U, the self-cleavage was 0.07.
As for C10A A24U G36C, the figure is 0.02; as for C15A A16G C18A G27A, 0.01; as for A6G C10G G22C U38G A39U G44U, 0.01.
Turning to C13A G22U U28C G29A G44A, the self-cleavage was determined as 0.11.
With C3U A6G A25G, the self-cleavage was 0.05.
For G7U C10G G27C G36C, the self-cleavage turned out to be 0.
With G17A U28A C31U A39C, the self-cleavage amounted to 0.03.
Turning to U9C G21A C23A, the self-cleavage worked out at 0.02.
For U20G C31G G44U, the self-cleavage is 0.02.
As to A25C C42A U43G, the self-cleavage stood at 0.03.
Consider C15A G29U C37U C46A, for which the self-cleavage was 0.03.
Take G1C A6G C10U G19C G33C: the self-cleavage amounted to 0.01.
With C3A A4G A12C G30U U32A the figure was 0.03.
C13G A14G G29C G36A C45A: the self-cleavage was 0.06.
As for G5C C8A C37G C46U, the figure is 0.34; as for C13U C31U G40U, 0.06; as for G5A C13G G22A G29U, 0.07.
Regarding C3A A16U G29U G40U, the self-cleavage was 0.04.
Take G2U U32A A41C: the self-cleavage amounted to 0.06.
With U20C G33C A41U the figure was 0.12.
As for A4C U9G G22A, the figure is 0.01.
With C15G G27A C37U G40U C46U the figure was 0.02.
With A4U C23G A24G G33A, the self-cleavage turned out to be 0.02.
For the variant C18A G40U C42G, the self-cleavage worked out at 0.03.
Take U9A A24G G33U: the self-cleavage was determined as 0.24.
In the case of A6C U38G G44U, the self-cleavage worked out at 0.02.
Take C23U A26U A39C: the self-cleavage was found to be 0.61.
G27A U28G G36C: the self-cleavage was 0.
Turning to G1U A4C A6G G17A, the self-cleavage came out at 0.08.
As for G1C G2C C15A C18A A41U, the figure is 0.02; as for A12G C18G A24U U38C U43A, 0; as for A6U C23A U38G A39C, 0.04.
As to C3G A14C C15U A26G U32A U34C, the self-cleavage is 0.04.
G5U C10G C15U A24G: the self-cleavage is 0.01.
A6C C13A G30A G33A: the self-cleavage was determined as 0.03.
C18A C23A G35A C37G: the self-cleavage turned out to be 0.05.
With G1A G27C U28C G44A the figure was 0.01; with C8U C10G C23U G30U A39G, 0.02.
For the variant G19A G22C A25C U38G, the self-cleavage is 0.01.
With A6G U20G C37G the figure was 0.01; with G1A G29U C31U C42A, 0.03.
As for C3A G5C C8A G19U A24U C42A, the figure is 0.62.
Consider G7C C10A A41C C46A, for which the self-cleavage turned out to be 0.02.
For the variant G2A G17C C31G U32G U34A, the self-cleavage came out at 0.
C10A A16C A24C U32C G36U: the self-cleavage was found to be 0.
As for C3U C18U C31U, the figure is 0.03; as for A6U C8G C15U U38A, 0.08; as for G1A A16G C31G C37A, 0.01.
Consider G1A A12G G19C U28G U34C, for which the self-cleavage came out at 0.01.
As to G21A G27C G30A A41G, the self-cleavage was found to be 0.3.
For the variant C8U C10U C45A, the self-cleavage came out at 0.02.
Take C15U G17U G22A G40A U43G: the self-cleavage came out at 0.01.
For the variant G2U A12G C42U, the self-cleavage was 0.39.
As for C3U G27A G30U G40C, the self-cleavage amounted to 0.06.
With C10G U34G A39C the figure was 0.02.
With G7U A16G G19C U32G the figure was 0.02; with A24G A25G C31G, 0.01; with C18A A24U C37G, 0.02.
In the case of G7U A12U G21C G22C U43G C45U, the self-cleavage is 0.05.
G5A A11C C46G: the self-cleavage was found to be 0.03.
As for A11G G19U G29C C45G, the figure is 0; as for G36U C37A C46U, 0.12.
Regarding G1C A11U C18G G22A C23U C37G, the self-cleavage was found to be 0.01.
For C13U G21A G22C A26C G35C, the self-cleavage was 0.02.
For A16G C18U A25C G30C C31U, the self-cleavage stood at 0.02.
As for G21U C23G C46A, the self-cleavage stood at 0.19.
As for G7C G22C U38G C46G, the self-cleavage amounted to 0.
On to C8A G17A G33U G35C C42A, for which the self-cleavage came out at 0.28.
Regarding A11C C13A A14G U20C U34G C42G, the self-cleavage stood at 0.01.
Turning to G2U C13U G33C A41U, the self-cleavage was found to be 0.02.
G19A U28G G29U: the self-cleavage came to 0.63.
For G1C G7A U38C, the self-cleavage was determined as 0.01.
As for G5A C15U A26G C37A, the self-cleavage was determined as 0.15.
Regarding G19C U20C G40A, the self-cleavage is 0.06.
As for G7A C8G U9A G19U A26U A39U, the self-cleavage is 0.16.
For the variant G2C C3A G21A G30A C37G, the self-cleavage stood at 0.22.
In the case of C8A G30C A39U, the self-cleavage stood at 0.57.
With G21C C42U G44A, the self-cleavage is 0.15.
As for U20A G21U G40C, the self-cleavage came to 0.03.
G2A C10A G29A G33U C37U G44A: the self-cleavage was found to be 0.01.
As for C10A A24C C31U, the figure is 0.02.
Regarding G2C C15A G17U G22A G33A A41U G44A, the self-cleavage turned out to be 0.09.
As for G1U G7A G19A G33A, the self-cleavage was 0.23.
C18A C45A C46A: the self-cleavage was 0.08.
Regarding U34C A41G G44C, the self-cleavage was found to be 0.06.
As for A14C A39G C46U, the figure is 0.01; as for U9A G22U C23A, 0.14.
On to G5U G27U U28G, for which the self-cleavage is 0.02.
On to G5A C18U C23A, for which the self-cleavage was found to be 0.71.
With C15G C18G G30U the figure was 0.05.
With C10U G17U G22U U28G the figure was 0.16; with G27C G33U A41C, 0.35; with G2U A4G G17C C31G, 0.02.
As for C8A G21U G40A, the self-cleavage was 0.07.
In the case of G7U C31U C37A G40C, the self-cleavage turned out to be 0.01.
As for G19C G40A A41U, the figure is 0.14; as for C8U U20A A26U, 0.15; as for G21A G27A G44A, 0.36.
In the case of C3G A12U G17U G19U G21A, the self-cleavage came to 0.1.
Turning to G2U C15A C31G U34C C37A, the self-cleavage came to 0.01.
For the variant A6U G7U A11G G30A U32A, the self-cleavage amounted to 0.
G5C G19U C31A C37U G40U: the self-cleavage stood at 0.04.
Consider A11U A26G C46A, for which the self-cleavage is 0.02.
For A4U C8U U34G, the self-cleavage amounted to 0.04.
With G30U C42G C46U the figure was 0.19.
Regarding C3U A4C C13U C15U A24C G36A, the self-cleavage worked out at 0.59.
In the case of C13G A14G G22A C23U G35A, the self-cleavage turned out to be 0.04.
As to C8G A25U G44C, the self-cleavage worked out at 0.1.
Regarding G5U A11U C15U C46U, the self-cleavage was 0.03.
In the case of A4G U20A G27C G44C, the self-cleavage was found to be 0.01.
As to C10G A11U C15U A16C C18A A26C, the self-cleavage is 0.03.
As to A6G G7A C8G A24C, the self-cleavage came out at 0.12.
Take C15G C23G G29U: the self-cleavage stood at 0.06.
As for A4U C15G A16C G30U C37A A39U, the self-cleavage turned out to be 0.1.
Regarding U32A C42A C45A, the self-cleavage was determined as 0.12.
Consider C3G A12U G22U G30C U38C, for which the self-cleavage is 0.68.
As for G1U A4G C15U A25U, the self-cleavage worked out at 0.04.
Take G2A U28C U32G U34A G36A: the self-cleavage came to 0.02.
As to C8G C10A U20C A39U, the self-cleavage was 0.
C13A C23G A24C G36A: the self-cleavage is 0.22.
C8A C13U G35C: the self-cleavage turned out to be 0.26.
For A4U C13G C23U, the self-cleavage was 0.32.
As for G21U G30A G33U C37A, the self-cleavage stood at 0.04.
Consider C10A A24C G44A C46G, for which the self-cleavage came to 0.02.
Regarding C8U C13A G19U, the self-cleavage amounted to 0.26.
C3U G5C A39U: the self-cleavage was determined as 0.02.
Regarding A12G A14G C18U, the self-cleavage stood at 0.02.
As for G1U C10U G35U, the figure is 0.02; as for A4U A12C C13U C18G, 0.03.
As for G5U G22C A26G, the figure is 0.04; as for G2A G22A A25U, 2.35; as for A14U C23G C31G, 0.01.
For G36C U38C G40A A41U C46G, the self-cleavage stood at 0.01.
On to C15U G35U U38C, for which the self-cleavage came out at 0.03.
A4C C8U C10G G21A G29U G40A: the self-cleavage amounted to 0.01.
As for G27C G29C A41U, the self-cleavage was 0.28.
In the case of G1U G2U A24C G33A G44U C46U, the self-cleavage was 0.03.
With G2U C37G C46A, the self-cleavage stood at 0.02.
Consider C8A G27A C31A U32A G44A, for which the self-cleavage turned out to be 0.33.
As for G5U C10A A25G, the self-cleavage was 0.02.
As for C8A A41G U43C, the self-cleavage was 0.04.
As for G1C C10A U34G, the figure is 0.01; as for A6U G17U C42G, 0.06.
As for A14G U20A U38A G40A, the self-cleavage turned out to be 0.03.
For C8U A26C G30C U32A, the self-cleavage came out at 0.15.
Turning to C10G A11G G30C U32G A41C, the self-cleavage was found to be 0.
For G2A C13U U32G U34A, the self-cleavage came to 0.06.
Turning to G29U G33C G36U, the self-cleavage stood at 0.08.
In the case of A11G U32A G35C C46G, the self-cleavage stood at 0.01.
As for C10A A11C U28C, the figure is 0; as for U9C C15A U34G, 0.01.
Consider G2C C8U C15A G27U G36A G44C C46U, for which the self-cleavage is 0.19.
Turning to G5A C8G C10G A24U G27A, the self-cleavage stood at 0.01.
As for C8A G36C U38C, the figure is 0.32; as for G7A A11C G19U C45G, 0; as for G7C A14U C15G, 0.03.
As for G2U G5U C8U A11G G29A G40U, the figure is 0.01.
With G30U U34C C45A the figure was 0.03; with U9G A14U C15A C42U, 0.02.
In the case of A14C A25G G36U C46G, the self-cleavage is 0.03.
C3G G5C C18A: the self-cleavage is 0.08.
As for G2C C10G C18G G36A, the self-cleavage was found to be 0.
With G5C A6G C46G the figure was 0.06; with G7A U20G G30C C45A, 0.09.

The values are drawn from the RNAGym collection of RNA variant scans (doi:10.7554/elife.90254).
